Source: the supplement of paper PMC6451100
Some of the results follow. Read counts after selection give these values, which scatter widely.

Target: T1, Drosophila AGO2 (FLAG-tagged, S2-R+ lysate) (UniProt Q9VUQ5)
T1 sequence: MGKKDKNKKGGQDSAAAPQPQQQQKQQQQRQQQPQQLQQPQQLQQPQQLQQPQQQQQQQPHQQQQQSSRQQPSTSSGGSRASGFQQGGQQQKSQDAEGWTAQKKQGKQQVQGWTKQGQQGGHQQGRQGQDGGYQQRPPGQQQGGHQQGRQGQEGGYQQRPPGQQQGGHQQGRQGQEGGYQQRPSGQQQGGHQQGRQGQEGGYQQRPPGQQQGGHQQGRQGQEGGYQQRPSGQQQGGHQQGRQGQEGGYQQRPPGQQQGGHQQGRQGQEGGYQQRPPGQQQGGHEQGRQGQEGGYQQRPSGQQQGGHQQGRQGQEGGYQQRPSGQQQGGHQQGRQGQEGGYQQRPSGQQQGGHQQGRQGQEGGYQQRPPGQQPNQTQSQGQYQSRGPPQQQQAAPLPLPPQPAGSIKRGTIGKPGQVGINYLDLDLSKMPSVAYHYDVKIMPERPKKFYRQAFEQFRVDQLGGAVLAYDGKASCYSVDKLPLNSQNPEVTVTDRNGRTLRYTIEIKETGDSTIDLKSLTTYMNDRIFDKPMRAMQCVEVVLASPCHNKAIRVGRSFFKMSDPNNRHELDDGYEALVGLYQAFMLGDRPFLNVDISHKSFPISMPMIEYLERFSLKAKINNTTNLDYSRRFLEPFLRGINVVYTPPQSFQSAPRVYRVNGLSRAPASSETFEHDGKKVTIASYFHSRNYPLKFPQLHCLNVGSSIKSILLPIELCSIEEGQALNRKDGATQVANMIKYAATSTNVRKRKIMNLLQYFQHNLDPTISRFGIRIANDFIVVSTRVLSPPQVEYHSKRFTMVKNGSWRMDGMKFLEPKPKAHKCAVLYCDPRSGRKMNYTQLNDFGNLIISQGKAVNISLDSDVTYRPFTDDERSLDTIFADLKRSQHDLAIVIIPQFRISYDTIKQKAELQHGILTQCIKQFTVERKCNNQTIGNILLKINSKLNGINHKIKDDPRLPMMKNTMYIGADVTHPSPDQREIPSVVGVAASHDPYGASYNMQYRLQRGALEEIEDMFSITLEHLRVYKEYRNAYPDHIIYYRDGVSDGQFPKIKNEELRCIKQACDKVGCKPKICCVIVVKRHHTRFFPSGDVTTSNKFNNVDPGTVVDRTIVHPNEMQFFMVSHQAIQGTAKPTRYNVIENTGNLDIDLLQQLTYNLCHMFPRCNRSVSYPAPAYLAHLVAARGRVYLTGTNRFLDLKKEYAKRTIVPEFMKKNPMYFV
Assay: AGO2 loading enrichment factor (IP read count / input read count, not library-size normalised) (ratio); higher = more efficient loading into AGO2
Conditions: randomized region: 5' 5N of miR-317 loop
Experimental: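 HISSA: 5'-phosphorylated, 32P-labelled 20-nt ssRNA oligos (miR-317 loop, first 5 nt randomized, constant 3' part TGAAATGCAAGCAAG as printed in methods; DNA letters for RNA) incubated 1 h at 25°C in lysate of S2-R+ cells expressing FLAG-AGO2. FLAG-AGO2 was immunopurified and bound oligos were sequenced after splinted ligation. Enrichment factor = IP read count / input read count (raw counts, not library-size normalised); single library, no replicates.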
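Note: Per-sequence enrichment computed with FASTAptamer, counting only reads that carry the expected constant 3′ region.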

Row | Sequence | AGO2 loading enrichment factor
1 | CAGCTTGAAATGCAAGCAAG | 0.0733
2 | ACCACTGAAATGCAAGCAAG | 0.649
3 | GACGATGAAATGCAAGCAAG | 0.83
4 | AGTGCTGAAATGCAAGCAAG | 0.137
5 | TCTGTTGAAATGCAAGCAAG | 0.486
6 | AGGTGTGAAATGCAAGCAAG | 1
7 | GAGTTTGAAATGCAAGCAAG | 0.167
8 | ATCCTTGAAATGCAAGCAAG | 0.486
9 | GAGCGTGAAATGCAAGCAAG | 0.496
10 | GCGGGTGAAATGCAAGCAAG | 0.447
11 | GCAATTGAAATGCAAGCAAG | 0.224
12 | CTGGGTGAAATGCAAGCAAG | 1.6
13 | ATGCTTGAAATGCAAGCAAG | 0.896
14 | GCAGGTGAAATGCAAGCAAG | 0.183
15 | CCTTGTGAAATGCAAGCAAG | 0.0948
16 | CCACATGAAATGCAAGCAAG | 0.461
17 | CGTAATGAAATGCAAGCAAG | 0.401
18 | TATCTTGAAATGCAAGCAAG | 0.0603
19 | ATAGTTGAAATGCAAGCAAG | 0.311
20 | CCATGTGAAATGCAAGCAAG | 0.341
21 | ATATCTGAAATGCAAGCAAG | 0.429
22 | CCATTTGAAATGCAAGCAAG | 0.275
23 | TATATTGAAATGCAAGCAAG | 0.394
24 | TAATCTGAAATGCAAGCAAG | 0.359
25 | TTATTTGAAATGCAAGCAAG | 0.624

Row | Sequence | AGO2 loading enrichment factor
26 | ACAGCTGAAATGCAAGCAAG | 0.189
27 | CCGAATGAAATGCAAGCAAG | 0.399
28 | TTATCTGAAATGCAAGCAAG | 0.443
29 | GCCCATGAAATGCAAGCAAG | 0.175
30 | CGCAGTGAAATGCAAGCAAG | 0.198
31 | GTAATTGAAATGCAAGCAAG | 0.452
32 | TCGCGTGAAATGCAAGCAAG | 0.362
33 | TCTTATGAAATGCAAGCAAG | 0.422
34 | TCCGGTGAAATGCAAGCAAG | 0.584
35 | GCGTTTGAAATGCAAGCAAG | 0.116
36 | CCACGTGAAATGCAAGCAAG | 0.702
37 | ATATGTGAAATGCAAGCAAG | 0.35
38 | TCGTATGAAATGCAAGCAAG | 0.334
39 | AGCTCTGAAATGCAAGCAAG | 0.238
40 | CATTTTGAAATGCAAGCAAG | 0.197
41 | AGGTCTGAAATGCAAGCAAG | 0.856
42 | CCGATTGAAATGCAAGCAAG | 0.322
43 | CCCCGTGAAATGCAAGCAAG | 0.364
44 | TACTCTGAAATGCAAGCAAG | 0.42
45 | CGAAGTGAAATGCAAGCAAG | 0.455
46 | GTAACTGAAATGCAAGCAAG | 0.388
47 | TAGTGTGAAATGCAAGCAAG | 0.349
48 | GGGAATGAAATGCAAGCAAG | 1.9
49 | AGTGATGAAATGCAAGCAAG | 0.435
50 | TCCTATGAAATGCAAGCAAG | 0.635

Row | Sequence | AGO2 loading enrichment factor
51 | AGGATTGAAATGCAAGCAAG | 0.523
52 | ATTGCTGAAATGCAAGCAAG | 0.253
53 | TAACGTGAAATGCAAGCAAG | 0.343
54 | GCCGATGAAATGCAAGCAAG | 0.351
55 | CGAGGTGAAATGCAAGCAAG | 1.46
56 | GCCAATGAAATGCAAGCAAG | 0.3
57 | CTATGTGAAATGCAAGCAAG | 0.159
58 | ACTCATGAAATGCAAGCAAG | 0.418
59 | GACGGTGAAATGCAAGCAAG | 1.19
60 | GTTCATGAAATGCAAGCAAG | 0.402
61 | AGTGTTGAAATGCAAGCAAG | 0.35
62 | AATCCTGAAATGCAAGCAAG | 0.318
63 | CTTTTTGAAATGCAAGCAAG | 0.199
64 | CCAACTGAAATGCAAGCAAG | 0.419
65 | AGTCATGAAATGCAAGCAAG | 0.434
66 | TATGTTGAAATGCAAGCAAG | 0.253
67 | TCACATGAAATGCAAGCAAG | 0.373
68 | TAAGGTGAAATGCAAGCAAG | 0.592
69 | ACCAGTGAAATGCAAGCAAG | 0.386
70 | TGATCTGAAATGCAAGCAAG | 0.423
71 | GATTTTGAAATGCAAGCAAG | 0.434
72 | TCTGGTGAAATGCAAGCAAG | 0.54
73 | CCGCATGAAATGCAAGCAAG | 0.269
74 | CGTCTTGAAATGCAAGCAAG | 0.167
75 | ATTCCTGAAATGCAAGCAAG | 0.378

Row | Sequence | AGO2 loading enrichment factor
76 | AAATTTGAAATGCAAGCAAG | 0.397
77 | AGCCGTGAAATGCAAGCAAG | 0.457
78 | TCGCTTGAAATGCAAGCAAG | 0.128
79 | AGAGATGAAATGCAAGCAAG | 0.512
80 | GTCGCTGAAATGCAAGCAAG | 0.278
81 | GGGTGTGAAATGCAAGCAAG | 2.96
82 | TAGTCTGAAATGCAAGCAAG | 0.33
83 | GCCGGTGAAATGCAAGCAAG | 0.456
84 | GTATTTGAAATGCAAGCAAG | 0.343
85 | TAGATTGAAATGCAAGCAAG | 0.325
86 | AGTTCTGAAATGCAAGCAAG | 0.453
87 | TGATATGAAATGCAAGCAAG | 0.446
88 | ATCGGTGAAATGCAAGCAAG | 0.522
89 | TCCTCTGAAATGCAAGCAAG | 0.572
90 | CTTAGTGAAATGCAAGCAAG | 0.213
91 | TATCGTGAAATGCAAGCAAG | 0.518
92 | GGTGGTGAAATGCAAGCAAG | 8.41
93 | AGGCGTGAAATGCAAGCAAG | 0.92
94 | ACACATGAAATGCAAGCAAG | 0.485
95 | AGGTATGAAATGCAAGCAAG | 0.504
96 | GCCTATGAAATGCAAGCAAG | 0.209
97 | GGGTTTGAAATGCAAGCAAG | 0.577
98 | GTTAGTGAAATGCAAGCAAG | 0.255
99 | CCCTATGAAATGCAAGCAAG | 0.62
